Assay results: PMC12136788
Numbering of substitutions follows the chain as printed. The list shows a part of the results.

B1: 75141830_75143030_377_3pUTR_ENSMUSG00000021996_ENSMUST00000022573|mouse|control|control (ssRNA)
RNA: GGGAGUUCUACAGUCCGACGAUCGGAAGCUCCUCGGUGACGUAAGAGUACAUUCUGUAGUUAGCUUUCCAAGGAUCUUCAGUGGCAUUCACAUAAAACCCAGCACCAGUGCCGAAGUCCCAGCUGUCAUCUUCUCCUUUGAUACAACAGAGGAUUGAGCAUCA
B2: chr14:76904430:76904431:+_ENSMUSG00000022010_ENSMUST00000022587|mus_mus|mus_mus_mus_hu_True|28_78 (ssRNA)
RNA: GGGAGUUCUACAGUCCGACGAUCUGCAGCCAAAAACACCCUCGUGGAAAAAAAGAGCAAGCUCCAGCAGCCUUGUAUAAGCUAGAUAAAAUCUUCUGGCUUUCCGCAGCUCAGGGCGAAACAGAAAACGGCAGCCCUAAUUUACAACAGAGGAUUGAGCAUCA
B3: chr4:63681588:63681589:-_ENSMUSG00000028364_ENSMUST00000107372|mus_mus|FALSE|FALSE (ssRNA)
RNA: GGGAGUUCUACAGUCCGACGAUCGCUUGUGCCUGAUGAUUUUCUUGAGGACCCCACCUUCGGGAGUGAGGGCAAACAAAGCUAGAAAGAUGCCUGGCAGUAGCCAGGUCACGGCCCCCAUGGUGGAGGUUGGACUGGCUAGGUCAACAGAGGAUUGAGCAUCA
B4: 97538318_97538526_2474_CDS_ENSMUSG00000038437_ENSMUST00000044730|mouse|control|control (ssRNA)
RNA: GGGAGUUCUACAGUCCGACGAUCGUCCAGGCCGAGGCUGUUCUUCCCGGGAGGGCUCUUGCUGACGCUCAGGGAGUCACUGCUGCCAGCUUGAGGAAGCAGUCCAUAGGGCCCUGGGAUGGGGCCGUUAGUGGCCGGCAGGGCCAACAGAGGAUUGAGCAUCA
B5: chr1:180459674:180459675:+_ENSMUSG00000026494_ENSMUST00000161017|mus_hu|FALSE|FALSE (ssRNA)
RNA: GGGAGUUCUACAGUCCGACGAUCGCCUCUCUUUAUUCCCAGCUACCGAAUUCAUGGUGGCUUUUCCAGAGGAGAGUAUCUAAAGGUUCCACCGACGCUACAUCCAGAAGGUCCUCCAACCCAGAAGCGUCCCCCGGCUGCAGGCAACAGAGGAUUGAGCAUCA
B6: chr2:157388114:157388115:+_ENSMUSG00000067786_ENSMUST00000109526|mus_mus|FALSE|FALSE (ssRNA)
RNA: GGGAGUUCUACAGUCCGACGAUCUUGGUGGAGGUGGUCCCUGUCUCCAGGAGCUUACAAUCUAGCUGGGGAGACACUACUAAUGCACACUUAAACCAGUACAAUUAGCGACUACCACAAUAUUGACCACAACUGCUGCGUGAGCAACAGAGGAUUGAGCAUCA
B7: chr1:45984709:45984710:-_ENSG00000117450_ENST00000319248|hu_hu|motif|central (ssRNA)
RNA: GGGAGUUCUACAGUCCGACGAUCUUUUAGCAUUUCCUGAAGACAUCUUCCUAUCAGCAGUCCCAACACAAGUCGCAGAAACGGACCACCGACACCAGGCAAGAACAAGACGCGCAAGAGCUCUCCGGGGCGCUGCCUUUAUAGCAACAGAGGAUUGAGCAUCA
B8: chrX:101157612:101157613:-_ENSMUSG00000056537_ENSMUST00000070705|mus_mus|FALSE|FALSE (ssRNA)
RNA: GGGAGUUCUACAGUCCGACGAUCAAAUUAUCAGUAACAGGUUAGCAAUUCAUCUGGUACCGAAAUCAAAUGUUUAAGUCCUAAAAUGUUGUUUUUAAAAUAUUCUUUCCAUCCUGAAAGAGAAACUAGAGAAAAGGCAUGAUACAACAGAGGAUUGAGCAUCA
B9: chr13:49748638:49748639:+_ENSG00000102531_ENST00000398316|hu_hu|FALSE|FALSE (ssRNA)
RNA: GGGAGUUCUACAGUCCGACGAUCACUUGUACCAUAGUCAUUUCUGGCCGAUAGUCUGAAUUUACAGCCCAUUGCUGGUGAAAGUUUAGUAAUUUUAAAUUGUUUCUGUGAGCCCAUGUAACACUGACAAAAUUCUCCAUUUCCCAACAGAGGAUUGAGCAUCA
B10: 81641522_81643749_1588_3pUTR_ENSG00000153956_ENST00000356860|human|control|control (ssRNA)
RNA: GGGAGUUCUACAGUCCGACGAUCCUAAAACCAUUGGUCUUCCCAAAACAUCCAAAUAUUCCUGAGUAUUGAUUCUUAUUGCACCAAUGGAAGGAAUUUCAUAAUAAUAACCUUUGUUUUCACAGGCCAUCCACUGAAUAGGUCCAACAGAGGAUUGAGCAUCA
B11: chrX:71549762:71549763:+_ENSMUSG00000019087_ENSMUST00000019231|mus_mus|mus_mus_mus_hu_False|18_68 (ssRNA)
RNA: GGGAGUUCUACAGUCCGACGAUCAAACCCGUGUACUUCUUAUUGUUAGCACAACAUCACCAGAAAAAAAACAUAACAGCCAAGCAGGACAGACAGUUAAGUAGUACUUCCACACUCCGCAAAUUCAGGAGCCCUAUAACCUUACAACAGAGGAUUGAGCAUCA
B12: chr18:42401725:42401726:-_ENSMUSG00000024493_ENSMUST00000097590|mus_mus|motif|central (ssRNA)
RNA: GGGAGUUCUACAGUCCGACGAUCAGGCCGAACCCAACAAUUUGUCUGCCCAAACAUAGUCUCAGGUCUGAGUGUAGCAGCGGCGGGGAAGAUAUUUUUCCCUUUCAGGCCGCUUAAUUUUGAUGGAUAUGGUUCAAGCACCUUCAACAGAGGAUUGAGCAUCA
B13: chr18:52892545:52892546:-_ENSG00000196628_ENST00000354452|hu_hu|FALSE|FALSE (ssRNA)
RNA: GGGAGUUCUACAGUCCGACGAUCGAACAAUAAAUUGCAGCUUUUACUCUGAGUGAGAACAAAAUAUAAAGCACCAAUUUAAAAAAUAAUCAAAUGACUACAAUUUACUUUUUUGCUUUGUUUACAGAUUUGAAAAACUUUAAUCAACAGAGGAUUGAGCAUCA
B14: 155186719_155186839_170_ncRNA_ENSMUSG00000029068_ENSMUST00000139066|mouse|control|control (ssRNA)
RNA: GGGAGUUCUACAGUCCGACGAUCUCGAGGCCGCUCGACAUGGACGGCGUGAAGCGGAGCUUGUCGUCGGGCAGCAGGCAGUUUUCCAAGGUGAUGAGCACGCCCGAGUAGAGCCUGUCGCCGAUCAGCACCCCCUGAGACCCCCAACAGAGGAUUGAGCAUCA
B15: chr2:228221723:228221724:+_ENSG00000168958_ENST00000354503|hu_hu|motif|central (ssRNA)
RNA: GGGAGUUCUACAGUCCGACGAUCGACCAUUUCUCUUUUAGCACGUUCUUUGUUCUCCUCUUCCAGAAGUUGUAGACGUCGGUUUAGUUUGAUUAUCUGUCGUCUUAGUGAAGCUGCAUCUACAACAGUCAGGUCAUCUGACGUCAACAGAGGAUUGAGCAUCA
B16: chr2:42509997:42509998:+_ENSG00000143924_ENST00000318522|hu_mus|hu_hu_hu_mus_True|1_68 (ssRNA)
RNA: GGGAGUUCUACAGUCCGACGAUCUCGCUGAGUCCUCUCCUCAUAAUUAAACAGGACUACCACUGAGGCAAUGAAAUAAACUAUCUCCCCUGUGGGAAGCAGGUAUACAUUCGCUCUACAGUCCUUUCCUCGAUAACCAUAUGCCAACAGAGGAUUGAGCAUCA
B17: chr4:140556289:140556290:+_ENSMUSG00000036622_ENSMUST00000037055|mus_mus|mus_mus_mus_hu_False|78_78 (ssRNA)
RNA: GGGAGUUCUACAGUCCGACGAUCGAUGGAGCUCACCAGGCCCCCUUUUGCCGUGCAGAACCCUGUCCGGGUCACCACUGCCAGGACGUGCGGUCCCACAUAGGCCCGGGCCUGCAAGAUGAGGGUCCCGCAGAAGAGUGUGUGCAACAGAGGAUUGAGCAUCA
B18: chr4:140556289:140556290:+_ENSMUSG00000036622_ENSMUST00000037055|mus_mus|mus_mus_mus_hu_False|38_68 (ssRNA)
RNA: B17 RNA with C66G, G69A, A99G, C105U
B19: chr1:166823625:166823626:+_ENSG00000143157_ENST00000367875|hu_mus|motif|central (ssRNA)
RNA: GGGAGUUCUACAGUCCGACGAUCAUCAAAGUUUAUUACUGGGAUCAGUUUCUAUCUAGGGAGUGCCAGUCCCAGUGAGCGGUGGUAAUUCUCAGGAAACAGCUAUUCUGCUCAAUAGUUGUACUGGGGCUCUGUUAGGCAUAGCAACAGAGGAUUGAGCAUCA
B20: chr6:146524949:146524950:-_ENSMUSG00000040250_ENSMUST00000032427|mus_mus|FALSE|FALSE (ssRNA)
RNA: GGGAGUUCUACAGUCCGACGAUCCUGCCUACAGGAUUCUGCCAUGUAUGGGCAGUGAUCCACAACAAACACUGUUUUAUGAGAUUCAGAAAAAAUCUUCAUUUUGUUUUAACUUUCGUGCCUGGUCCUGCAGUGAAUGAACGGCAACAGAGGAUUGAGCAUCA
B21: 27506802_27509066_2324_CDS_ENSG00000077235_ENST00000561623|human|control|control (ssRNA)
RNA: GGGAGUUCUACAGUCCGACGAUCCAGUCCGGGAACUACAAUGGGGUGAUAAUUUCUAAGCGGGGUUAUGCCCAUUUUAUUAUCACUUUUUUUCAUCCGUCCACUUUCUGAUCUAGAGGAAGCACUCAGCUGAGAGUCCCCUGACAACAGAGGAUUGAGCAUCA
B22: 17640840_17640960_252_CDS_ENSG00000125844_ENST00000246043|human|control|control (ssRNA)
RNA: GGGAGUUCUACAGUCCGACGAUCAGCAGGAGCCCGCACUGGUUCUCGAAGGAGGACAGUCACAUUGGGGGCUGGAUCAUGAUCAGGUAUCUUCCCAUUAGGUUUCUCUUCCUUUUUCUUGGUCUUUCCUUUCUUCUCCACUGUCAACAGAGGAUUGAGCAUCA

molecular target: T1, UNK ZnF1-3 (human, UniProt Q9C0B0 31-174); test: nsRBNS (natural sequence RNA bind-n-seq); RBNS binding buffer (assumed for nsRBNS): 25 mM Tris pH 7.5, 150 mM KCl, 3 mM MgCl2, 0.01% Triton X-100, 500 ug/ml BSA, 20 U/ml SUPERase-In, 4 C; UNK is unkempt and MSI1 is Musashi-1; names of the RNAs are library labels; protein concentration not given here; high values mean tight binding
T1 sequence: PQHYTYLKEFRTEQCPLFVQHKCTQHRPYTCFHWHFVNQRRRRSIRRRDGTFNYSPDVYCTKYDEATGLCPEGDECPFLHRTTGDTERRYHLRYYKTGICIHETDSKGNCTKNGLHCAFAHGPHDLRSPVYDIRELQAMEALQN

| Binder | binding signal [enrichment R] |
| --- | --- |
| B1 | 1.06 |
| B2 | 1.68 |
| B3 | 0.888 |
| B4 | 1.32 |
| B5 | 1.45 |
| B6 | 1.64 |
| B7 | 1.02 |
| B8 | 1.39 |
| B9 | 1.29 |
| B10 | 0.997 |
| B11 | 2.18 |
| B12 | 0.968 |
| B13 | 1.07 |
| B14 | 0.832 |
| B15 | 0.412 |
| B16 | 0.882 |
| B17 | 1.46 |
| B18 | 0.908 |
| B19 | 1.07 |
| B20 | 0.701 |
| B21 | 0.392 |
| B22 | 0.754 |
